Assay results: the supplement of paper PMC12217912
The other results are listed elsewhere or left out. The full chains were built here from the parent and the listed change. Values near 0.05 are background.

B1: TEV protease; numbered along this chain (parent)
chain: MGESLFKGPRDYNPISSSICHLTNESDGHTTSLYGIGFGPFIITNKHLFRRNNGTLVVQSLHGVFKVKDTTTLQQHLVDGRDMIIIRMPKDFPPFPQKLKFREPQREERICLVTTNFQTKSMSSMVSDTSCTFPSGDGIFWKHWIQTKDGQCGSPLVSTRDGFIVGIHSASNFTNTNNYFTSVPKNFMELLTNQEAQQWVSGWRLNADSVLWGGHKVFMVKPEEPFQPVKEATQL

Variants of: B1
Experiment: raw area under fraction-flipped curve 0-4 h after induction (AUC4h, not background-subtracted), DNA-recorder readout of cleavage of the substrate (dimensionless); higher = more cleavage of the substrate by the protease variant
Details: temperature: 34 °C; time window: 0-4 h after rhamnose induction
Experimental: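 In vivo DNA recorder in E. coli TOP10(DE3) ΔrhaA at 34 °C. Each TEVp single-site mutant (parent TEVp 0) is paired with a single-site variant of the 7-mer TEVs (canonical ENLYFQ|S). The substrate sits between flexible linkers in a Bxb1-sfGFP-TEVs-SsrA fusion, so cleavage stabilises Bxb1 and speeds flipping of a recombination array, read by NGS. The value is the raw area under the fraction-flipped curve over 0-4 h after rhamnose induction (AUC4h), with ≥20 reads per time point. It is not background-subtracted; inactive controls average about 0.047.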
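Note: Bxb1 expression induced with 0.2% (w/v) L-rhamnose at OD600 near 0.5, cultures sampled hourly, flipped fraction per protease–substrate barcode pair counted by paired-end Illumina sequencing.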

| Variant | area with substrate ENLAFQS | area with substrate ENLDFQS | area with substrate ENLFFQS | area with substrate ENLKFQS | area with substrate ENLNFQS | area with substrate ENLPFQS | area with substrate ENLQFQS | area with substrate ENLSFQS | area with substrate ENLTFQS | area with substrate ENLWFQS | area with substrate ENLHFQS | area with substrate ENLIFQS | area with substrate ENLLFQS | area with substrate ENLMFQS | area with substrate ENLEFQS | area with substrate ENLGFQS | area with substrate ENLRFQS | area with substrate ENLVFQS | area with substrate ENLCFQS |
| --- | --- | --- | --- | --- | --- | --- | --- | --- | --- | --- | --- | --- | --- | --- | --- | --- | --- | --- | --- |
| MGESLFKGPRDYNPISSSICHLTNESDGHTTSLYGIGFGPFIITNKHLFRRNNGTLVVQSLHGVFKVKDTTTLQQHLVDGRDMIIIRMPKDFPPFPQKLKFREPQREERICLVTTNFQTKSMSSMVSDTSCTFPSGDGIFWKHWIQTKDGQCGSPLVSTRDGFIVGITSASNFTNTNNYFTSVPKNFMELLTNQEAQQWVSGWRLNADSVLWGGHKVFMVKPEEPFQPVKEATQL [H168T] | 0.0743 | 0.0865 | 0.0498 | 0.0594 | 0.0591 | 0.0627 | 0.0526 | 0.0485 | 0.0944 | 0.0469 | – | – | – | – | – | – | – | – | – |
| MGESLFKGPRDYNPISSSICHLTNESDGHTTSLYGIGFGPFIITNKHLFRRNNGTLVVQSLHGVFKVKDTTTLQQHLVDGRDMIIIRMPKDFPPFPQKLKFREPQREERICLVTTNFQTKSMSSMVSDTSCTFPSGDGIFWKHWIQTKDGQCGSPLVSTRDGFIVGISSASNFTNTNNYFTSVPKNFMELLTNQEAQQWVSGWRLNADSVLWGGHKVFMVKPEEPFQPVKEATQL [H168S] | 0.0734 | 0.0814 | 0.0677 | 0.0564 | 0.0486 | 0.0592 | 0.0677 | – | 0.059 | 0.0527 | 0.0678 | 0.0595 | 0.0484 | 0.0608 | – | – | – | – | – |
| MGESLFKGPRDYNPISSSICHLTNESDGHTTSLYGIGFGPFIITNKHLFRRNNGTLVVQSLHGVFKVKDTTTLQQHLVDGRDMIIIRMPKDFPPFPQKLKFREPQREERICLVTTNFQTKSMSSMVSDTSCTFPSGDGIFWKHWIQTKDGQCGSPLVSTRDGFIVGIVSASNFTNTNNYFTSVPKNFMELLTNQEAQQWVSGWRLNADSVLWGGHKVFMVKPEEPFQPVKEATQL [H168V] | 0.0646 | 0.0646 | 0.0593 | 0.07 | 0.0543 | 0.0555 | 0.0527 | 0.0661 | – | 0.046 | 0.0517 | – | 0.0586 | – | 0.0669 | 0.0699 | 0.105 | – | – |
| MGESLFKGPRDYNPISSSICHLTNESDGHTTSLYGIGFGPFIITNKHLFRRNNGTLVVQSLHGVFKVKDTTTLQQHLVDGRDMIIIRMPKDFPPFPQKLKFREPQREERICLVTTNFQTKSMSSMVSDTSCTFPSGDGIFWKHWIQTKDGQCGSPLVSTRDGFIVGIRSASNFTNTNNYFTSVPKNFMELLTNQEAQQWVSGWRLNADSVLWGGHKVFMVKPEEPFQPVKEATQL [H168R] | 0.059 | 0.0845 | 0.055 | 0.0656 | 0.051 | 0.046 | – | 0.0664 | – | 0.0627 | 0.0576 | 0.0522 | – | 0.0579 | – | – | 0.042 | 0.0669 | – |
| MGESLFKGPRDYNPISSSICHLTNESDGHTTSLYGIGFGPFIITNKHLFRRNNGTLVVQSLHGVFKVKDTTTLQQHLVDGRDMIIIRMPKDFPPFPQKLKFREPQREERICLVTTNFQTKSMSSMVSDTSCTFPSGDGIFWKHWIQTKDGQCGSPNVSTRDGFIVGIHSASNFTNTNNYFTSVPKNFMELLTNQEAQQWVSGWRLNADSVLWGGHKVFMVKPEEPFQPVKEATQL [L156N] | 0.0507 | 0.0916 | 0.0509 | 0.0461 | 0.056 | 0.046 | 0.0691 | 0.0546 | 0.0583 | 0.0448 | 0.0595 | 0.0499 | – | 0.0542 | 0.053 | 0.0394 | 0.0474 | 0.0579 | 0.0398 |
| MGESLFKGPRDYNPISSSICHLTNESDGHTTSLYGIGFGPFIITNKHLFRRNNGTLVVQSLHGVFKVKDTTTLQQHLVDGRDMIIIRMPKDFPPFPQKLKFREPQREERICLVTTNFQTKSMSSMVSDTSCTFPSGDGIFWKHWIQTKDGQCGSPLVSTRDGFIVCIHSASNFTNTNNYFTSVPKNFMELLTNQEAQQWVSGWRLNADSVLWGGHKVFMVKPEEPFQPVKEATQL [G166C] | 0.0396 | 0.0615 | 0.0561 | 0.0534 | 0.0577 | – | 0.0555 | 0.0616 | – | – | 0.0562 | – | 0.055 | – | – | – | 0.0566 | – | – |
| MGESLFKGPRDYNPISSSICHLTNESDGHTTSLYGIGFGPFIITNKHLFRRNNGTLVVQSLHGVFKVKDTTTLQQHLVDGRDMIIIRMPKDFPPFPQKLKFREPQREERICLVTTNFQTKSMSSMVSDTSCTFPSGDGIFWKHWIQTKDGQCVSPLVSTRDGFIVGIHSASNFTNTNNYFTSVPKNFMELLTNQEAQQWVSGWRLNADSVLWGGHKVFMVKPEEPFQPVKEATQL [G153V] | 0.0432 | 0.051 | 0.054 | 0.0603 | 0.048 | – | – | 0.0744 | – | – | 0.0448 | 0.0602 | – | – | 0.0484 | – | – | 0.0391 | – |
| MGESLFKGPRDYNPISSSICHLTNESDGHTTSLYGIGFGPFIITNKHLFRRNNGTLVVQSLHGVFKVKDTTTLQQHLVDGRDMIIIRMPKDFPPFPQKLKFREPQREERICLVTTNFQTKSMSSMVSDTSCTFPSGDGIFWKHWIQTKDGQCGSPLVSTRDGFIVGEHSASNFTNTNNYFTSVPKNFMELLTNQEAQQWVSGWRLNADSVLWGGHKVFMVKPEEPFQPVKEATQL [I167E] | 0.0495 | 0.0666 | – | 0.0403 | 0.0468 | 0.0582 | – | 0.0632 | – | – | 0.0478 | 0.042 | – | – | – | – | – | – | – |
| MGESLFKGPRDYNPISSSICHLTNESDGHTTSLYGIGFGPFIITNKHLFRRNNGTLVVQSLHGVFKVKDTTTLQQHLVDGRDMIIIRMPKDFPPFPQKLKFREPQREERICLVTTNFQTKSMSSMVSDTSCTFPSGDGIFWKHWIQTKDGQCGSPLVSTRDGFIVGDHSASNFTNTNNYFTSVPKNFMELLTNQEAQQWVSGWRLNADSVLWGGHKVFMVKPEEPFQPVKEATQL [I167D] | 0.0725 | 0.0733 | 0.0496 | 0.0631 | 0.0711 | 0.0552 | – | 0.0622 | 0.0595 | 0.0413 | 0.0583 | 0.0557 | 0.066 | – | 0.0599 | – | 0.0574 | – | 0.0424 |
